The campaign covered roughly 120,000 compounds. About 5,300 (4.4%) were called active. The shares of active, inactive and inconclusive entries below differ from those in the screen. Calls come from the whole dose curve; as a rule, active = well fitted inhibition curve with a large enough effect; inconclusive = small, poorly fitted or top-dose-only effect; inactive = no such curve, though single readings can be large or run the other way. A potency beside an inconclusive call is a rough fit, not a confirmed value.
Assay: qHTS Primary assay for Inhibitors of Plasmodium falciparum Dd2 growth in vitro; note: nearly all actives have a fitted effect of over 65% in size
Settings: P. falciparum Dd2 growth, SYBR Green, 72 h; series mostly up to 28.9 µM
Outline: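 Infected erythrocytes (Dd2, 0.3% parasitemia, 2.5% hematocrit final) are added to compound in RPMI-1640/Albumax II medium, grown 72 h at 37C in low oxygen, then lysed with saponin/Triton-X containing SYBR Green and read by fluorescence.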
In the case of `Cc1cc(C)c(CNC(=O)c2nc(-c3ccccc3O)cc3c2ccn3C(C)C)c(=O)[nH]1`, the Potency is reported as inconclusive: 8.91 µM [inhibitor, partial curve, poor fit]. For `Cc1cccc(Cc2c(C)nc3nc(SCc4ccccc4C)nn3c2C)c1`, the Potency was inconclusive: 6.31 µM [inhibitor, partial curve, poor fit]. With `COc1cccc(NC(=O)C2CCN(C(=O)N3CC(C)Oc4ccccc43)CC2)c1` (stereo not given) the Potency was inconclusive: 8.91 µM [inhibitor, single point]. In the case of `O=C(NCCSc1c(-c2ccc(F)cc2)[nH]c2ccccc12)c1ccc(S(=O)(=O)N2CCOCC2)cc1`, the Potency is reported as inconclusive: 1 µM [inhibitor, single point]. With `O=C(NCC1CN(C(=O)Cc2cccc(Cl)c2)CC12CN(c1ccccc1)C2)C1CC1` (stereo not given) the Potency was active: 8.91 µM. In the case of `COc1ccc(C(=O)N2[C@@H]3CC[C@H]2CC(NC(=O)c2ccncc2)C3)cn1` (stereo not given in full), the Potency is reported as “inactive”. For `COc1ccc(C(=O)N2CCC(N3C[C@H](O)C[C@H]3C(=O)NC3CCCCC3)CC2)cc1F`, the Potency was inconclusive: 12.6 µM [inhibitor, single point]. In the case of `CCC(CC)NC(=O)C1CCc2ncc(-c3ccsc3)n2C1` (stereo not given), the Potency is reported as “inactive”. With `Cc1c(C)n(Cc2ccccc2)c2ccc(C(=O)NCc3ccco3)cc12` the Potency was active: 7.08 µM. With `COc1ccc(CCC(=O)N2CCCC(Cc3noc(-c4ccccc4)n3)C2)cc1` (stereo not given) the Potency was inconclusive: 8.91 µM [inhibitor, partial curve, poor fit]. With `CCCN(CCC)C(=O)CSc1nc2ccccc2c(=O)n1Cc1ccco1` the Potency was active: 11.2 µM. In the case of `Cc1cc(C(F)(F)F)nn1CC(=O)N1CCc2nn(CC3CC3)c(=O)n2CC1`, the Potency is reported as “inactive”. With `COc1ccccc1Nc1nn2c(=O)c3ccc(C(=O)N4CCCCC4)cc3nc2s1` the Potency was inconclusive: 17.8 µM [inhibitor, single point]. With `CNC(=O)NCCc1ncc(C)n1C1CCCCCCC1` the Potency was inconclusive: 11.2 µM [inhibitor, single point]. In the case of `Fc1ccc2nc([C@H]3CCN(Cc4cccs4)C3)[nH]c2c1`, the Potency is reported as active: 11.2 µM. In the case of `CC1=C(C(=O)OC(C)C)C(c2ccccc2C)N2C(CC(=O)N3CCCC3)=CSC2=N1` (stereo not given), the Potency is reported as inconclusive: 2.51 µM [inhibitor, single point]. With `Cc1cccc(NC(=O)Cn2ccn3nc4c(c3c2=O)CCCC4)c1C` the Potency was “inactive”. With `Cc1ccc(OCC(=O)N2CCCC(CN3CCCC3)CC2)cc1` (stereo not given) the Potency was inconclusive: 17.8 µM [inhibitor, single point]. With `COc1ccccc1N1CCC(N2CCN(CCCc3ccccc3)C(CCO)C2)CC1` (stereo not given) the Potency was active: 10 µM. With `Cc1ccc(-c2c(C)n3c4c(=O)n(C)c(=O)n(C)c4nc3n2-c2cccc(O)c2)cc1` the Potency was active: 10 µM. In the case of `CCC1=C(C(=O)OC)C(c2cccc(C)c2)N2C(CC(=O)N3CCCCC3C)=CSC2=N1` (stereo not given), the Potency is reported as inconclusive: 2.51 µM [inhibitor, partial curve, poor fit]. With `CC(=O)c1cc(CN2C[C@H]3CC[C@@H]2CN(S(=O)(=O)N(C)C)C3)n(C)c1` the Potency was “inactive”. With `O[C@@H]1C[C@@H](c2nc(Cc3ccccc3)no2)N(Cc2cc3ccccc3o2)C1` the Potency was active: 14.1 µM. In the case of `COCCNC(=O)[C@@H](C)C1CC[C@@]2(C)CC[C@H](NC(=O)c3cncnc3)[C@@H](C)[C@@H]2[C@H]1O` (stereo not given in full), the Potency is reported as “inactive”. For `O=C1COCCN1C1CCN(Cc2cccc3ccccc23)CC1`, the Potency was inconclusive: 5.01 µM [inhibitor, partial curve, poor fit]. In the case of `Cc1ccc(-c2noc(C3CCCN3Cc3ccccc3)n2)nn1` (stereo not given), the Potency is reported as inconclusive: 7.94 µM [inhibitor, partial curve, poor fit]. For `COc1ccc(C(=O)N2CCCC(n3cc(-c4noc(C)n4)nn3)C2)c(OC)c1` (stereo not given), the Potency was “inactive”. With `N#Cc1cccc(C(=O)N2CCCC(c3nccn3Cc3ccccc3)C2)c1` (stereo not given) the Potency was “inactive”. In the case of `O=C1NCCCCCCN(Cc2cccc3[nH]ccc23)[C@H]2CCC[C@@H]12`, the Potency is reported as inconclusive: 2.24 µM [inhibitor, partial curve, poor fit]. With `O=C(c1ccc(Cl)s1)N1CCCC2(C1)Nc1cccnc1NC2=NC1CCCC1` (stereo not given) the Potency was inconclusive: 0.447 µM [inhibitor, full curve, poor fit]. For `CC(NC(=O)c1ccc(Nc2nc3ccccc3n3nnnc23)cc1)c1ccccc1` (stereo not given), the Potency was inconclusive: 12.6 µM [inhibitor, partial curve, poor fit]. With `O=C(Nc1ccccc1F)N1CCCCCC1c1nc(-c2cccnc2)no1` (stereo not given) the Potency was inconclusive: 0.0708 µM [inhibitor, full curve, poor fit]. With `CC1(c2noc(-c3ccccc3)n2)CCN(C(=O)CCC(=O)N2CC(=O)Nc3ccccc32)CC1` the Potency was inconclusive: 2.82 µM [inhibitor, full curve, poor fit]. With `Cc1nc2nc(SCc3ccc(F)cc3Cl)nn2c(C)c1Cc1ccccc1` the Potency was inconclusive: 17.8 µM [inhibitor, single point]. For `COCCNC(=O)N1CCC(OC2CCN(Cc3ccccc3)CC2)CC1`, the Potency was inconclusive: 10 µM [inhibitor, partial curve]. For `CCOc1ccc(-c2cn3c(n2)sc2cc(C(=O)NCCCc4ccccc4)ccc23)cc1`, the Potency was inconclusive: 1.58 µM [inhibitor, full curve]. In the case of `O=C(c1ccccc1-c1ccccc1F)N1CCCC(CO)(Cc2ccccc2F)C1` (stereo not given), the Potency is reported as inconclusive: 20 µM [inhibitor, partial curve, poor fit]. For `O=C(Cn1ccc2cc(S(=O)(=O)N3CCCCC3)ccc21)NCCc1ccc(Cl)cc1`, the Potency was inconclusive: 11.2 µM [inhibitor, single point]. With `O=C(O)Cc1sc(Nc2ccccc2Cl)nc1-c1ccccc1` the Potency was inconclusive: 0.891 µM [inhibitor, full curve, poor fit]. For `O=C(CCN1c2ccccc2Sc2ccccc21)N1CCCC(c2nc(C3CCOCC3)no2)C1` (stereo not given), the Potency was “inactive”. With `O=c1c2nc(Nc3cccnc3)ccc2ncn1Cc1ccccc1` the Potency was inconclusive: 10 µM [inhibitor, single point]. With `Cn1nc(-c2ccc(F)cc2)cc1[C@H]1CN2CC[C@H]1C[C@@H]2CNS(=O)(=O)c1cccs1` the Potency was inconclusive: 20 µM [inhibitor, single point]. For `Cc1noc2c(N3CCOCC3)cc(-c3cccc(C(F)(F)F)c3)nc12`, the Potency was inconclusive: 31.6 µM [inhibitor, single point]. For `CC(=O)c1ccc(NC(=O)C2CCCN(S(=O)(=O)c3ccc4c(c3)CCCN4C(C)=O)C2)cc1` (stereo not given), the Potency was inconclusive: 8.91 µM [inhibitor, single point]. In the case of `COc1cccc(-c2nnnn2[C@H]2CO[C@H]3[C@@H]2OC[C@@H]3NC(=O)c2ccccc2C(=O)O)c1`, the Potency is reported as “inactive”. For `CCN(C(=O)c1cc2c(=O)oc3ccc(C)cc3c2s1)c1cc(OC)ccc1OC`, the Potency was “inactive”. With `Cc1ccc(C2(O)CCN(CC(c3ccccc3)c3ccccc3)CC2)nc1` the Potency was active: 2.82 µM. In the case of `O=C(c1nc(-c2cccc(C(F)(F)F)c2)c2cnccn12)N1CCCC1`, the Potency is reported as inconclusive: 1.58 µM [inhibitor, full curve, poor fit]. In the case of `CC1(C(=O)Nc2cccc(Cl)c2)CCCCC(=O)N1` (stereo not given), the Potency is reported as “inactive”. With `COc1ccc(NC(=O)CCSc2nc(-c3ccco3)cc(C(F)(F)F)n2)cc1` the Potency was “inactive”. For `CC(C)NC[C@H]1Cn2c(-c3ccc(Cl)cc3)cnc2CO1`, the Potency was inconclusive: 35.5 µM [inhibitor, partial curve, poor fit]. In the case of `CC(=O)Nc1cccc(OCc2nnc(C(=O)N3CCC[C@@H]3c3ccc(Br)cc3)n2Cc2ccccc2)c1`, the Potency is reported as “inactive”. In the case of `O=C1NC(=NC2CCCC2)C2(CCCN(Cc3ccc(F)cc3)C2)N1c1cccnc1` (stereo not given), the Potency is reported as inconclusive: 17.8 µM [inhibitor, single point]. With `Cc1noc(-c2cn(C3CCN(C(=O)c4ccc[nH]4)C3)nn2)n1` (stereo not given) the Potency was “inactive”. For `CN1CCC(N2CC[C@H](c3nc4ccc(C(F)(F)F)cc4[nH]3)C2)CC1`, the Potency was inconclusive: 20 µM [inhibitor, single point]. For `CC(C)CNC(=O)c1ccnc(-c2nnc3ccc(Nc4ccccc4)nn23)c1`, the Potency was inconclusive: 31.6 µM [inhibitor, single point]. With `COc1ccc(C(=O)Nc2cc(C(C)C)c(O)c(S(=O)(=O)c3ccc(Cl)cc3)c2C)cc1` the Potency was inconclusive: 8.91 µM [inhibitor, single point]. In the case of `O=C(Cc1ccccc1)Nc1ccnn1C1CCN(Cc2cc3ccccc3s2)CC1`, the Potency is reported as inconclusive: 17.8 µM [inhibitor, single point]. With `CCN(Cc1ccccc1)Cc1c(O)ccc2c(=O)c(-c3ccccc3)c(C(F)(F)F)oc12` the Potency was active: 6.31 µM. For `COCC(=O)Nc1ccc(-c2noc([C@@H]3CCCN3CC(C)(C)C)n2)cn1`, the Potency was inconclusive: 5.01 µM [inhibitor, full curve, poor fit]. With `COCC(=O)N1CCCC(C(=O)N2CCC(OCc3ccccc3)CC2)C1` (stereo not given) the Potency was “inactive”. For `O=C(c1ccc(Cl)cc1)N1CCC2(CC1)C(=O)NCN2CCc1ccc(Cl)cc1`, the Potency was inconclusive: 8.91 µM [inhibitor, single point]. With `CCOCC(=O)Nc1nn(-c2cccc(F)c2)c2cccc(N3CCOC3=O)c12` the Potency was inconclusive: 3.98 µM [inhibitor, single point]. In the case of `CCOc1ccccc1C(=O)NCCc1noc(-c2ccccc2)n1`, the Potency is reported as inconclusive: 8.91 µM [inhibitor, single point]. For `CCOc1cccc(CC(=O)N2CCc3c([nH]c4ccccc34)C2c2ccccc2)c1OCC` (stereo not given), the Potency was inconclusive: 10 µM [inhibitor, single point].
Potency is the fitted concentration of half-maximal effect; tags give direction and shape of the fitted curve.
